This continues a long series; more values of the same kind are listed elsewhere.
Tests used:
Rat [1] = assay: concentration in blood after dosing; details: dosed: Naphthalene, 10 mg/kg, iv, Female, F344
Rat [2] = assay: concentration in blood after dosing; details: dosed: Naphthalene, iv, Female, F344
Rat [3] = assay: concentration in blood after dosing; details: dosed: Naphthalene, 10 mg/kg, iv, Female, F344; remark: listed apart in the source
Rat [4] = assay: concentration in plasma after dosing; details: 40 min; dosed: 1-Chloro-2-propanol; 15 mg/kg; oral; Female; F344
Rat [5] = assay: concentration in plasma after dosing; details: oral
Rat [6] = assay: concentration in plasma after dosing; details: 40 min; dosed: 1-Chloro-2-propanol; 15 mg/kg; oral; Female; F344; remark: listed apart in the source
Rat [7] = assay: concentration in plasma after dosing; details: dosed: 1-Chloro-2-propanol, 15 mg/kg, oral, Female, F344
Rat [8] = assay: concentration in plasma after dosing; details: 0.5 h; dosed: 1-Chloro-2-propanol; 15 mg/kg; oral; Female; F344
Rat [9] = assay: concentration in plasma after dosing; details: dosed: 1-Chloro-2-propanol, 15 mg/kg, oral, Female, F344; remark: listed apart in the source
Rat [10] = assay: concentration in plasma after dosing; details: dosed: 1-Chloro-2-propanol, 15 mg/kg, oral, Female, F344; remark: listed apart in the source
Rat [11] = assay: concentration in plasma after dosing; details: dosed: dibromoacetic acid, 40 mg/kg, oral, Female, Harlan Sprague Dawley
Rat [12] = assay: concentration in plasma after dosing; details: dosed: dibromoacetic acid, 40 mg/kg, oral, Female, Harlan Sprague Dawley; remark: listed apart in the source
Rat [13] = assay: concentration in plasma after dosing; details: dosed: dibromoacetic acid, 100 mg/kg, oral, Male, F344
Rat [14] = assay: concentration in plasma after dosing; details: dosed: dibromoacetic acid, 100 mg/kg, oral, Male, F344; remark: listed apart in the source
Rat [15] = assay: concentration in plasma after dosing; details: dosed: dibromoacetic acid, 100 mg/kg, oral, Male, F344; remark: listed apart in the source
Rat [16] = assay: concentration in plasma after dosing; details: 40 min; dosed: dibromoacetic acid; 10 mg/kg; oral; Male; Harlan Sprague Dawley
Rat [17] = assay: concentration in plasma after dosing; details: dosed: dibromoacetic acid, 10 mg/kg, oral, Male, Harlan Sprague Dawley
Rat [18] = assay: concentration in plasma after dosing; details: 2 h; dosed: dibromoacetic acid; 10 mg/kg; oral; Male; Harlan Sprague Dawley
Rat [19] = assay: concentration in plasma after dosing; details: 40 min; dosed: dibromoacetic acid; 10 mg/kg; oral; Male; Harlan Sprague Dawley; remark: listed apart in the source
Rat [20] = assay: concentration in plasma after dosing; details: dosed: dibromoacetic acid, 40 mg/kg, oral, Female, Harlan Sprague Dawley; remark: listed apart in the source
Rat [21] = assay: concentration in plasma after dosing; details: dosed: dibromoacetic acid, 40 mg/kg, oral, Female, Harlan Sprague Dawley; remark: listed apart in the source
Rat [22] = assay: concentration in plasma after dosing; details: dosed: dibromoacetic acid, 100 mg/kg, oral, Male, F344; remark: listed apart in the source
Rat [23] = assay: concentration in plasma after dosing; details: 2 h; dosed: dibromoacetic acid; 10 mg/kg; oral; Male; Harlan Sprague Dawley; remark: listed apart in the source
Rat [24] = assay: concentration in plasma after dosing; details: dosed: dibromoacetic acid, 10 mg/kg, oral, Male, Harlan Sprague Dawley; remark: listed apart in the source
Rat [25] = assay: concentration in plasma after dosing; details: dosed: dibromoacetic acid, 10 mg/kg, oral, Male, Harlan Sprague Dawley; remark: listed apart in the source
Rat [26] = assay: concentration in plasma after dosing; details: 1 h; dosed: dibromoacetic acid; 10 mg/kg; oral; Male; Harlan Sprague Dawley
Rat [27] = assay: concentration in plasma after dosing; details: dosed: dibromoacetic acid, 100 mg/kg, oral, Male, F344; remark: listed apart in the source
Rat [28] = assay: concentration in plasma after dosing; details: 40 min; dosed: dibromoacetic acid; 40 mg/kg; oral; Female; Harlan Sprague Dawley
Rat [29] = assay: concentration in plasma after dosing; details: 40 min; dosed: dibromoacetic acid; 40 mg/kg; oral; Female; Harlan Sprague Dawley; remark: listed apart in the source
Rat [30] = assay: concentration in plasma after dosing; details: dosed: dibromoacetic acid, 40 mg/kg, oral, Female, Harlan Sprague Dawley; remark: listed apart in the source
Rat [31] = assay: concentration in plasma after dosing; details: 6 h; dosed: dibromoacetic acid; 100 mg/kg; oral; Male; F344
Rat [32] = assay: concentration in plasma after dosing; details: dosed: dibromoacetic acid, 100 mg/kg, oral, Male, F344; remark: listed apart in the source
Rat [33] = assay: concentration in plasma after dosing; details: dosed: dibromoacetic acid, 40 mg/kg, oral, Female, Harlan Sprague Dawley; remark: listed apart in the source
Rat [34] = assay: concentration in plasma after dosing; details: 20 min; dosed: dibromoacetic acid; 100 mg/kg; oral; Male; F344
Rat [35] = assay: concentration in plasma after dosing; details: 20 min; dosed: dibromoacetic acid; 40 mg/kg; oral; Female; Harlan Sprague Dawley
Rat [36] = assay: concentration in plasma after dosing; details: 40 min; dosed: dibromoacetic acid; 100 mg/kg; oral; Male; F344
Rat [37] = assay: concentration in plasma after dosing; details: dosed: dibromoacetic acid, 10 mg/kg, oral, Male, Harlan Sprague Dawley; remark: listed apart in the source
Rat [38] = assay: concentration in plasma after dosing; details: dosed: dibromoacetic acid, 100 mg/kg, oral, Male, F344; remark: listed apart in the source
Rat [39] = assay: concentration in plasma after dosing; details: 4 h; dosed: dibromoacetic acid; 40 mg/kg; oral; Female; Harlan Sprague Dawley
Rat [40] = assay: concentration in plasma after dosing; details: dosed: dibromoacetic acid, 40 mg/kg, oral, Female, Harlan Sprague Dawley; remark: listed apart in the source
Rat [41] = assay: concentration in plasma after dosing; details: dosed: dibromoacetic acid, 10 mg/kg, oral, Male, Harlan Sprague Dawley; remark: listed apart in the source
Rat [42] = assay: concentration in plasma after dosing; details: 40 min; dosed: dibromoacetic acid; 100 mg/kg; oral; Male; F344; remark: listed apart in the source

c1ccc2ccccc2c1 [Naphthalene]
concentration in blood [ng/mL]
Details	1 h	2 h	4 h	5 min	6 h	8 h	10 min	12 h	20 min	40 min
Rat [1]	392	192	78.8	12400	57.7	49.4	7510	30.2	1800	608
Rat [3]	241	236	103	10000	63.1	55.9	8610	29.5	2220	922

concentration in blood [ng/mL], Rat [2]
Details	3 mg/kg	10 mg/kg
1 h	142	365
2 h	57.7	204
2 min	6780	–
4 h	29.8	95.2
5 min	2930	8310
6 h	24.5	61.9
8 h	–	45
10 min	3030	2270
12 h	–	26.3
20 min	529	2630
40 min	260	1050

CC(O)CCl (stereo not drawn) [1-Chloro-2-propanol]
Details	concentration in plasma [ng/mL]
Rat [4]	1220
Rat [6]	1630
Rat [8]	2290

Rat [5], dosed: 1-Chloro-2-propanol, 15 mg/kg, Female, F344
Details	concentration in plasma [ng/mL]
0.5 h	1660
1.5 h	350
40 min	1320

concentration in plasma [ng/mL]
Details	0.5 h	1.5 h	2.5 h	20 min
Rat [7]	–	304	–	4540
Rat [9]	–	266	–	4100
Rat [10]	3230	–	60	–

O=C(O)C(Br)Br [dibromoacetic acid]
Details	concentration in plasma [ng/mL]
Rat [11], 1 h	21400
Rat [11], 2 min	148
Rat [12], 2 h	4510
Rat [12], 5 min	3010
Rat [13], 2 h	26600
Rat [13], 5 min	15000
Rat [14], 2 h	30100
Rat [14], 5 min	10800
Rat [15], 6 h	3200
Rat [15], 20 min	82300
Rat [17], 3 h	187
Rat [17], 10 min	813
Rat [20], 3 h	1170
Rat [20], 10 min	16000
Rat [21], 4 h	561
Rat [21], 20 min	38700
Rat [22], 4 h	7650
Rat [22], 10 min	32000
Rat [24], 3 h	106
Rat [24], 10 min	393
Rat [25], 1 h	1550
Rat [25], 2 min	144
Rat [27], 1.25 h	40900
Rat [27], 2 min	7320
Rat [30], 3 h	1420
Rat [30], 10 min	17600
Rat [32], 1.25 h	44600
Rat [32], 2 min	11000
Rat [33], 1 h	12400
Rat [33], 2 min	1030
Rat [37], 4 h	194
Rat [37], 20 min	1390
Rat [38], 4 h	5750
Rat [38], 10 min	52200
Rat [40], 2 h	4040
Rat [40], 5 min	6120
Rat [41], 4 h	115
Rat [41], 20 min	2470

Details	concentration in plasma [ng/mL]
Rat [16]	1600
Rat [18]	553
Rat [19]	23400
Rat [23]	481
Rat [26]	1790
Rat [28]	20400
Rat [29]	23100
Rat [31]	722
Rat [34]	86300
Rat [35]	33500
Rat [36]	87300
Rat [39]	542
Rat [42]	114000

Rat [5], dosed: dibromoacetic acid
Details	concentration in plasma [ng/mL]
1 h, 10 mg/kg, Male, Harlan Sprague Dawley	1530
1 h, 40 mg/kg, Female, Harlan Sprague Dawley	9800
1.25 h, 100 mg/kg, Male, F344	35400
2 h, 10 mg/kg, Male, Harlan Sprague Dawley	951
2 h, 40 mg/kg, Female, Harlan Sprague Dawley	6530
2 h, 100 mg/kg, Male, F344	28500
2 min, 10 mg/kg, Male, Harlan Sprague Dawley	143
2 min, 40 mg/kg, Female, Harlan Sprague Dawley	694
2 min, 100 mg/kg, Male, F344	16200
3 h, 10 mg/kg, Male, Harlan Sprague Dawley	418
3 h, 40 mg/kg, Female, Harlan Sprague Dawley	1060
4 h, 40 mg/kg, Female, Harlan Sprague Dawley	364
4 h, 100 mg/kg, Male, F344	8300
5 min, 10 mg/kg, Male, Harlan Sprague Dawley	192
5 min, 40 mg/kg, Female, Harlan Sprague Dawley	1570
5 min, 100 mg/kg, Male, F344	8290
6 h, 100 mg/kg, Male, F344	3580
10 min, 10 mg/kg, Male, Harlan Sprague Dawley	590
10 min, 40 mg/kg, Female, Harlan Sprague Dawley	21100
10 min, 100 mg/kg, Male, F344	36600
20 min, 10 mg/kg, Male, Harlan Sprague Dawley	3870
20 min, 40 mg/kg, Female, Harlan Sprague Dawley	37400
20 min, 100 mg/kg, Male, F344	78500
40 min, 10 mg/kg, Male, Harlan Sprague Dawley	1220
40 min, 40 mg/kg, Female, Harlan Sprague Dawley	24800
40 min, 100 mg/kg, Male, F344	111000

Reference: EPA's CvTdb concentration-time database
